What was measured:
FMR1 [1] = test: RT-PCR analysis of FMR1 transcript levels in FXS-iPSCs; assay type: cell-based, human; settings: for FMR1 mRNA expression (RT-PCR): FXS-iPSCs B #40, 96-hour treatment, 5-azaC 5 μM, 5-azadC 5 μM, SGI-110 2 μM, Zebularine 100 μM, non-nucleoside inhibitors 5-100 μM
Excerpt: Three human iPSC clones derived from three individual FXS patients were used during the study: patient A—clone 52, patient B—clone 40 and patient C—clone 2 (Urbach, A., Bar-Nur, O., Daley, G. Q., and Benvenisty, N. (2010). Differential Modeling of Fragile X Syndrome by Human Embryonic Stem Cells and Induced Pluripotent Stem Cells. Cell Stem Cell 6, 407-411). As a control, we used a previously characterized isogenic FXS-iPSC line with a deletion of the CGG repeat tract, induced using the CRISPR/Cas9 technology, and CSES9 hESCs and their derivatives were used as a reference for FMR1 normal expression levels (WT expression). Cell culture conditions were standard for PSC culturing. Briefly, cells were cultured on mouse embryonic fibroblasts (MEFs) in KnockOut Dulbecco's modified Eagle's medium (Invitrogen) supplemented with 15% KnockOut SR (Invitrogen), 0.1 mM β-mercaptoethanol (Sigma-Aldrich), 1% nonessential amino acids stock (Biological Industries), 1 mM glutamine, 0.1 mM 3-mercaptoethanol (Sigma-Aldrich), 50 U/ml penicillin (Biological Industries), 50 μg/ml streptomycin (Biological Industries) and 4 ng/ml FGF2 (Invitrogen). The medium was supplemented with 10 μM ROCK inhibitor (Y27632) during the first 24 hours after thawing. The cells were passaged using trypsin or trypsin-EDTA (Biological Industries, Beit Haemek, Israel).
(§1) GAPDH was used for normalization.
Since aberrant DNA hypermethylation plays a major role in silencing FMR1 transcription, we sought to analyze the reactivating effect of a series of hypomethylating agents, inhibiting the activity of DNMTs. DNMT inhibitors are divided into nucleoside-like inhibitors and non-nucleoside inhibitors of various origins and structures. We have analyzed the effects of 4 nucleoside DNMT inhibitors (5-azacytidine, 5-aza-2-deoxycytidine, SGI-110 and Zebularine) and 5 non-nucleoside DNMT inhibitors (SGI-1027, Procainamide, Hydralazine, RG108, Disulfiram) on FMR1 expression (FIG. 1A) in FXS-iPSCs.
We tested a set of 140 compounds in two concentrations (2 μM and 20 μM), with a treatment course of 72 hours (FIG. 1F). Using our automated imaging assay, we identified 19 compounds that induced a small FMRP signal increase. […] The positive hit compounds, along with 26 more compounds that were too toxic in the concentrations used in the 96-well assay, were tested in a secondary assay using quantitative RT-PCR to measure FMR1 expression. […] As no hit compound was potent enough to replace 5-azadC as a single treatment, we hypothesized that combining a nucleoside DNMT inhibitor with a compound that acts through a different mechanism may potentiate the effect of the demethylating treatment and decrease the levels of 5-azadC required for a robust induction of FMR1 expression. […]

FMR1 [2] = settings: Bar-Nur et al., 2012; cited from earlier work
FMR1 [3] = test: FMR1 reactivation in human FXS-NPC grafts transplanted in mouse brain; assay type: in vivo, C57BL/6 female mice; settings: i.p. 15 mg/kg/day for 5 days
Protocol: FXS-iPSCs and edited FXS-iPSCs were differentiated into NPCs using dual SMAD inhibition, based on previously published protocols with modifications: Briefly, iPSC lines were seeded on Matrigel-coated plates (1×10^6 cells/well) in mTeSR medium with 10 μM ROCK inhibitor (Y27632). Differentiation was initiated by supplementing human embryonic stem cell media lacking FGF2 with 10 μM SB431542 (biogems) and 2.5 μM LDN-193189 (biogems) for 4 days. In the subsequent 5 days, medium was gradually replaced with N2 medium (DMEM/F12 supplemented with 1×N2 supplement, 50 U/ml penicillin (Biological Industries), 50 μg/ml streptomycin (Biological Industries), 1 mM glutamine, 0.2 mM ascorbic acid and 0.16% glucose) supplemented with 10 μM SB431542 and 2.5 μM LDN-193189. […]
For RNA extraction, treated and untreated brains were excised and the grafts inside the target structures were dissected. Quantitative RT-PCR analysis of human-specific primers for the GAPDH gene mRNA confirmed the existence of human GAPDH mRNA only in grafted regions, but not in normal murine brain structures (FIG. 4F).

FMR1 [4] = tested on: FMR1
FMRP [5] = test: Western blot analysis of FMRP expression in FXS-NPCs; assay type: cell-based, human; settings: 14 and 35 days after treatment withdrawal
Protocol: Cell protein lysates were prepared using sample buffer composed of 100 mM Tris pH 6.8, 200 mM DTT, 4% SDS, 0.2% bromophenol blue and 20% glycerol. 10% polyacrylamide gel was used for protein separation. Gel was transferred to a nitrocellulose membrane. Following blocking with 5% nonfat dry milk in PBS for 1 hour, the membranes were incubated with mouse anti-FMRP antibody (YF-MA10356, Abfrontier) and rabbit anti GAPDH antibodies (2118, Cell Signaling). Following three washes the membranes were incubated with horseradish peroxidase-conjugated anti-rabbit and anti-mouse secondary antibodies (Jackson ImmunoResearch Laboratories).

FMR1 promoter = settings: 5 intraperitoneal injections of 15 mg/kg/day
FMR1 [6] = tested on: FMR1; remark: listed apart in the source
iPSCs = test: Toxicity of treatment in iPSCs
FMR1 [7] = test: RT-PCR of FMR1 expression in terminally differentiated FXS-neurons; assay type: cell-based, human; settings: 48 hours of treatment
Excerpt: as §1

FMRP [8] = test: FMRP expression screening (immunostaining imaging assay, 96-well) in FXS-iPSCs; assay type: cell-based, human; settings: for FMRP signal in epigenetic library screen: 2 μM and 20 μM, 72 hours, FXS-iPSCs A #52
FMR1 [9] = test: RT-PCR of FMR1 expression in FXS transplant-derived cell culture; assay type: cell-based, human; settings: DZNep 25 uM versus DMSO, 4 days
Protocol: as §1
FXS-transplants were dissociated into small cell aggregates. Following further trypsinization, dissociated cells were plated on gelatin coated 6-well plates.

Nc1ncn([C@@H]2O[C@H](CO)[C@@H](O)[C@H]2O)c(=O)n1 [5-azacytidine]
FMR1 mRNA expression (RT-PCR) (FMR1 [1]): robustly induce FMR1 mRNA expression
Restoration of FMR1 expression in FXS-iPSCs and their neural derivatives (FMR1 [2]): able to restore FMR1 expression

Nc1ncn([C@H]2C[C@H](O)[C@@H](CO)O2)c(=O)n1 [5-azadC, 5-aza-2-deoxycytidine]
Human FMRP in FXS-NPC grafts (immunofluorescence) (FMR1 [3]): FMRP reactivation
Dose dependence of FMR1 reactivation (FMR1 [4]; FXS-NPCs, 96-hour treatment, different concentrations): dose dependent manner
FMR1 mRNA maximum, percent of normal cells (FMR1 [4]; FXS-NPCs, 6 days after the drug was removed): 60-70%
FMR1 mRNA, percent of normal cells (FMR1 [4]; FXS-NPCs, following 6 days of treatment (5 μM)): 40%
Maintenance of FMR1 expression after treatment withdrawal (FMR1 [4]; FXS-NPCs, up to 30 days after the end of the treatment): did not show any decline in FMR1 expression
FMR1 mRNA levels relative to isogenic edited-FXS cell line (FMR1 [4]; FXS-iPSC-derived NPCs, 5-azadC treatment): approximately 40%
FMR1 mRNA expression (RT-PCR) (FMR1 [1]): robustly induce FMR1 mRNA expression
FMRP expression (western blot) after treatment withdrawal (FMRP [5]): detectable in similar levels
Demethylation of the FMR1 promoter in FXS-transplants (FMR1 promoter): efficiently demethylate the FMR1 promoter
Course of FMR1 mRNA expression after treatment withdrawal in FXS-transplants (FMR1 [6]; 15 mg/kg/day, 5 injections): continued to increase during the first 6 days
Effective dose in mice (FMR1 [6]; 5-azadC alone): 5 to 15 mg/kg/day
FMR1 expression in FXS-transplants, RNA and protein levels (FMR1 [6]; 5 intraperitoneal injections of 15 mg/kg/day): robustly induce FMR1 expression
Time FMR1 mRNA expression remained stable after the end of treatment (FMR1 [6]; FXS-transplants, without re-silencing): at least 30 days
Toxicity in iPSCs (iPSCs): significant toxicity
FMR1 expression in terminally differentiated neuronal cultures (FMR1 [7]): modest levels of FMR1 expression
FMRP expression (fraction of FMRP positive cells) by automated imaging (FMRP [8]; 1 μM, different incubation times): time dependent increase in FMRP expression
FMRP signal in epigenetic library screen (FMRP [8]): identified among the positive hits

Nc1nccc2c1ncn2C1C=C(CO)C(O)C1O (centres unmarked) [DZNep, 3-Deazaneoplanocin A]
FMR1 expression in secondary assay (quantitative RT-PCR), single agent (FMR1 [1]; FXS-iPSCs A #52, 96-hour treatment, DZNep 20 uM): the most potent
FMR1 mRNA in cells of 5-azadC treated FXS transplants after subsequent in vitro treatment (FMR1 [9]): higher levels of FMR1 mRNA

Nc1ncn([C@H]2C[C@H](OP(=O)(O)OC[C@H]3O[C@@H](n4cnc5c(=O)[nH]c(N)nc54)C[C@@H]3O)[C@@H](CO)O2)c(=O)n1 [SGI-110, Guadecitabine]
FMR1 mRNA expression (RT-PCR) (FMR1 [1]): robustly induce FMR1 mRNA expression

CCCc1cc(C)[nH]c(=O)c1CNC(=O)c1cc(-c2ccc(N3CCN(C(C)C)CC3)nc2)cc2c1cnn2C(C)C [UNC1999]
FMRP signal in epigenetic library screen (FMRP [8]): no positive effect on FMRP reactivation
